Experimental data reported in PubChem BioAssay AID686979 (National Center for Advancing Translational Sciences (NCATS), 2013).
About 50,000 (12%) of roughly 420,000 compounds were called active. This list was built around the results that the source calls inconclusive (neither active nor inactive); the mix of calls is not that of the screen. The call rests on the fitted dose curve; in most records, active means well fitted inhibition curve with a large enough effect; inconclusive means small, poorly fitted or top-dose-only effect; inactive means flat fitted curve, though single readings scatter. No potency is given beside an inconclusive call; the fits are too rough.

Assay: qHTS for Inhibitors of human tyrosyl-DNA phosphodiesterase 1 (TDP1): qHTS in cells in presence of CPT; further: nearly all actives have a fitted effect of over 55% in size
Conditions: chicken DT40 Tdp1-/-;hTDP1 cells + 20 nM CPT, ATP luminescence, 48 h; activity change, negative = growth inhibition: at 46.2 µM (top of the series) unless noted
Method in brief: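 Chicken DT40 Tdp1-/- cells complemented with human TDP1, 400 cells/well, exposed to compounds plus 20 nM camptothecin for at least 48 h at 37 C; viability read as ATP content by CellTiter-Glo luminescence.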
On the % scale 0 is the no-effect control and ±100 the full control effect; potency means the concentration at half of the fitted maximal effect; tags describe the fitted curve by direction and shape.

Row | SMILES | Potency | activity change, negative = growth inhibition
1 | Fc1ccc(-c2nc(-c3cccs3)c(-c3cccs3)[nH]2)cc1 | inconclusive [inhibitor, single point] | –
2 | CN(c1ncnc2c1c(-c1ccccc1)cn2-c1ccc(F)cc1)C1CCCCC1 | inconclusive [inhibitor, single point] | –
3 | CCC(=O)N1CCc2cc(S(=O)(=O)CCC(=O)N3CCN(c4ccccc4Cl)CC3)ccc21 | active: 18.4 µM | –
4 | COC(=O)Cc1c(-c2[nH]c3ccccc3c2CC(=O)OC)[nH]c2ccccc12 | active: 20.6 µM | –
5 | Cc1cc2occ(CC(=O)N(C)CC(=O)Nc3ccc(F)cc3)c2cc1C | active: 11.6 µM | –
6 | Cc1ccc2cc3cc(C(=O)N4CCN(c5cccc(C(F)(F)F)c5)CC4)sc3nc2c1 | inactive | –
7 | CCOC(=O)c1c(N)c(C#N)cn1-c1ccccc1 | inactive | –
8 | CC1CCN(S(=O)(=O)c2cccc(C(=O)NC3CCCC3)c2)CC1 | inconclusive [inhibitor, single point] | –
9 | O=C(NCCOCCO)C(=O)Nc1c2c(nn1-c1ccc(F)cc1)CSC2 | inactive | –
10 | COc1ccc(Cl)cc1S(=O)(=O)N1CCCC(C(=O)N2CCCC2)C1 (configuration not stated) | inconclusive [inhibitor, single point] | –
11 | Cc1nn(Cc2ccccc2Cl)c2sc(C(=O)OC3CCCC3=O)cc12 (configuration not stated) | inactive | –
12 | O=C(NCCn1cc(SCc2cccc(F)c2)c2ccccc21)c1cccc(C(F)(F)F)c1 | inconclusive [inhibitor, single point] | –
13 | COCCN(Cc1ccccc1)C(=O)c1cc(S(=O)(=O)N2CCCCCC2)ccc1OC | inconclusive [inhibitor, single point] | –
14 | Cc1nn2c(NCCCn3ccnc3)cc(C(C)C)nc2c1-c1ccccc1 | inconclusive [inhibitor, single point] | –
15 | COc1cccc(-c2cnc3c(NC(C)=O)cc(-c4cccc(C(=O)NCCO)c4)cn23)c1 | active: 16.4 µM | –
16 | O=C(NNc1nc2cc3c(cc2s1)OCO3)c1cccc(F)c1 | inconclusive [inhibitor, single point] | –
17 | CC(C)OC(=O)c1cc(NC(=S)Nc2ccc([N+](=O)[O-])cc2)cc(C(=O)OC(C)C)c1 | active: 9.2 µM | –
18 | COc1ccc(C(=O)Cn2cc([N+](=O)[O-])nc2C)cc1 | inactive | –
19 | OC1CCC(Nc2ccn3nc(-c4cccc(Cl)c4)cc3n2)CC1 (configuration not stated) | inconclusive [inhibitor, single point] | –
20 | COc1cccc(CNC(=O)c2c(OC)cc(=O)n3c2CCN(C(=O)c2ccc(C)cc2C)CC3)c1 | – | inactive: -0.852% [at 9.04 µM]
21 | Cn1c(N)c(C(=O)COC(=O)/C=C/c2ccccc2Cl)c(=O)n(C)c1=O | inconclusive [inhibitor, single point] | –
22 | CCOC(=O)c1cc(-c2ccccc2)n(CCC(=O)Nc2ccc(C(F)(F)F)cc2)c1C | active: 7.31 µM | –
23 | Cc1ccc(C(=O)N2CCCC2)cc1S(=O)(=O)N1CCCCC1 | inconclusive [inhibitor, single point] | –
24 | Cc1cc(SCC(=O)c2cccs2)n2nc(C)c(-c3ccc(Cl)cc3)c2n1 | active: 16.4 µM | –

Row | SMILES | Potency | activity change, negative = growth inhibition
25 | COc1ccc(OC)c(NC(=O)CCN2CCN(c3ccccc3F)CC2)c1 | active: 29.1 µM | –
26 | CCOC(=O)c1nc2cc3n(c(CC(C)C)c-2c1C)CC(C)=C3C | active: 20.6 µM | –
27 | CC(C)c1ccc2nc(NC(=O)C3CC3)sc2c1 | inconclusive [inhibitor, single point] | –
28 | CCc1ccc(CN(C)C(=O)c2cc(COc3cc(C)c(Cl)c(C)c3)on2)nc1 | active: 16.4 µM | –
29 | CCNC(=S)Nc1ccc(NC(=O)c2ccccc2O)cc1 | inactive | –
30 | CCOC(=O)C1CCN(C2=C(NS(=O)(=O)c3ccc(Br)cc3)C(=O)c3ccccc3C2=O)CC1 | inconclusive [inhibitor, single point] | –
31 | Cc1sc(NC(=O)COc2ccccc2)c(C#N)c1C | inconclusive [inhibitor, partial curve] | –
32 | Cc1ccc(C)c(N2N=C(C(=O)Nc3ccccc3N3CCOCC3)CCC2=O)c1 | inconclusive [inhibitor, single point] | –
33 | CCC(C)(C)C(=O)Nc1ncc(S(=O)(=O)c2ccc([N+](=O)[O-])cc2)s1 | inconclusive [inhibitor, partial curve] | –
34 | COc1cc(OC)cc(-c2nnc(N(C)C(=O)c3ccncc3)s2)c1 | inactive | –
35 | COCCn1c(-c2ccc(Cl)cc2Cl)nc2c(c(=O)c3ccccc3n2C)c1=O | inconclusive [inhibitor, partial curve] | –
36 | Clc1ccccc1Cn1cccc1C1=NC(Cc2ccccc2)CO1 (configuration not stated) | inactive | –
37 | CCN(CC)c1ccc(NC(=O)Nc2cccc3ccccc23)cc1 | inactive | –
38 | Cc1cc(-c2ccc([N+](=O)[O-])cc2)cc(C)n1 | inactive | –
39 | O=[N+]([O-])c1ccc2c(c1N1CCCCC1)=NC1(CCCCC1)[N+]=2[O-] | active: 20.6 µM | –
40 | CC(=O)NC(Cc1ccc(O)cc1)C(=O)NCC(N)C(=O)c1ccccc1 (configuration not stated) | inconclusive [inhibitor, single point] | –
41 | CNc1ccc(C=C2C=CC=C2)cc1 | active: 11.2 µM | –
42 | N#CC1=C(N)SC(N)=C(C#N)C1c1ccnc2ccccc12 | inconclusive [inhibitor, single point] | –
43 | O=[N+]([O-])c1ccc(C[n+]2cc(-c3ccc(Cl)c(Cl)c3)n3c2CCCCC3)cc1 | inconclusive [inhibitor, partial curve, poor fit] | –
44 | C=CCOc1ccc(/C=C2/C(=O)ON=C2C)cc1OCC | inconclusive [inhibitor, single point] | –
45 | O=C(CSc1nc(-c2cccs2)cc(C(F)(F)F)n1)NCc1ccccc1 | inconclusive [inhibitor, single point] | –
46 | O=C(NCCCSc1ccccc1)c1cc(Br)ccc1O | inconclusive [inhibitor, single point] | –
47 | COc1ccc(C2CC(c3ccc(OC)cc3)n3nc(NC(=O)c4cccs4)nc3N2)cc1 (configuration not stated) | inconclusive [inhibitor, single point] | –
